The values that follow are results of earlier work, collected in patent publication US11034725B2, “Compositions and methods for treating cardiovascular disease” (Genentech, Inc., priority 2016, dated 2021).

This data set addresses PCSK9 (Homo sapiens, UniProt Q8NBP7). To be noted: U.S. Pat. No. 9,266,961; read-out: antibody33/PCSK9 dissociation constant (Kd); cited from earlier work.

Chain of PCSK9 (Q8NBP7 153-692): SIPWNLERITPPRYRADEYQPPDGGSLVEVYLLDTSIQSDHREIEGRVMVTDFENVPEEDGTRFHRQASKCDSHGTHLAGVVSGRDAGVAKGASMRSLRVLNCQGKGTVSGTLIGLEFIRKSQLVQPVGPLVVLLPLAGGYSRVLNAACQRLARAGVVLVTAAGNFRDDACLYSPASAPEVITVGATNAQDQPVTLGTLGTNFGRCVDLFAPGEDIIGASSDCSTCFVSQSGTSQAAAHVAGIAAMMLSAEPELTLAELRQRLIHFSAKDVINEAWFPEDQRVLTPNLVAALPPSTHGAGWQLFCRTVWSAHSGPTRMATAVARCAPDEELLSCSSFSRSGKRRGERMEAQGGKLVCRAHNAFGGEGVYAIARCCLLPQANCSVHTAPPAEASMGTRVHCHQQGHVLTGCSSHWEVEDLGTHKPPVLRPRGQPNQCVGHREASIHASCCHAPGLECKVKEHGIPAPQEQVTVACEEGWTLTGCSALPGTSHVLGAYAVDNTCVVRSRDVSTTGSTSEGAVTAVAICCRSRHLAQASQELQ

B1: Ab33: anti-PCSK9 antibody, YW508.20.33b (Ab33), disclosed in U.S. Pat. No. 9,266,961 (antibody)
heavy: EVQLVESGGGLVQPGGSLRLSCAASGFTFSSTAIHWVRQAPGKGLEWVARISPANGNTNYADSVKGRFTISADTSKNTAYLQMNSLRAEDTAVYYCARWIGSRELYIMDYWGQGTLVTVSS[human IgG1 constant region not shown]
light: DIQMTQSPSSLSASVGDRVTITCRASQDVSTAVAWYQQKPGKAPKLLIYSASFLYSGVPSRFSGSGSGTDFTLTISSLQPEDFATYYCQQAYPALHTFGQGTKVEIKRTVAAPSVFIFPPSDEQLKSGTASVVCLLNNFYPREAKVQWKVDNALQSGNSQESVTEQDSKDSTYSLSSTLTLSKADYEKHKVYACEVTHQGLSSPVTKSFNRGEC
Consider B1, for which the Kd is 0.4 nM.
